# Test results as given in PMC12136788.
# The other results are listed elsewhere or left out.
# T1: UNK ZnF1-3 (human, UniProt Q9C0B0 31-174)
# T1 sequence: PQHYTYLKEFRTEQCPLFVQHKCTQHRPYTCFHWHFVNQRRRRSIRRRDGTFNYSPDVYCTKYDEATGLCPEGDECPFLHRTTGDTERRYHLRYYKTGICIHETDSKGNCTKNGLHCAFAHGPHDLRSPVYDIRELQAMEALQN
# B1: 89908954_89956294_234_3pUTR_ENSMUSG00000002489_ENSMUST00000163370|mouse|control|control (ssRNA)
# RNA: GGGAGUUCUACAGUCCGACGAUCAGAAACCCCAGGCCAAACAGAAGAGCCUUGGUCAAGAUCUCCAAAGGUGCCAUCUGAAGGCGCUGCUCAAGUCCUGAGUGAGGGACUAGAAUUGUCUCCGGGACUGUCCCCUCCCUUCCUCAACAGAGGAUUGAGCAUCA
# B2: 30261907_30262514_1480_CDS_ENSMUSG00000026853_ENSMUST00000028207|mouse|control|control (ssRNA)
# RNA: GGGAGUUCUACAGUCCGACGAUCCACAAGUGCAACUAUGGGGGGCCCUUCUGCAGCUGCAUGCUCAUACACCAUCCCACAGGAGCCGUCUUCUGCCACGAUGAACUGCAGUGUCUUGUCAAACCAGCGGUUGCCACUGUUGAACAACAGAGGAUUGAGCAUCA
# B3: chr14:78183846:78183847:+_ENSG00000119705_ENST00000557342|hu_hu|hu_hu_hu_mus_False|48_98 (ssRNA)
# RNA: GGGAGUUCUACAGUCCGACGAUCUCUCAGAAAUCUUUCUUUCUUUUAUGUUUGAGCUCCGUGCAAAGCCUUUGCUCUUUGAGCUUGAACCUGGACCUAUGGGAGGGAAAGCACUGUCAGAAAAGGUAAUUUUUUUUUUAAAGACAACAGAGGAUUGAGCAUCA
# B4: chr20:20006332:20006333:+_ENSG00000173418_ENST00000334982|hu_hu|FALSE|FALSE (ssRNA)
# RNA: GGGAGUUCUACAGUCCGACGAUCAGGUGCCUCUGCAACAAUGAAAUACUCUGGCCAGUGGGCGAGGUAUUGUAGGUAGAAAGGAAUCCCAUAAGUUUCUGUAAGUGGAUCCAAGUUAAUGUUGUUGAAGCGGAACAGGUCGUCCAACAGAGGAUUGAGCAUCA
# B5: chr2:48026839:48026840:+_ENSG00000116062_ENST00000540021|hu_hu|hu_hu_hu_mus_False|28_48 (ssRNA)
# RNA: GGGAGUUCUACAGUCCGACGAUCAUAGUGAGCCACUAGCGUCCUAAAUCUGGAACAGUGGCGGUCAUCCGAAAACUGGCCGAUGAAAAACUUUCCCAGUGAAGUGUCAACAAAGCAAACACCAUACACACGAGUGUGACCAGACAACAGAGGAUUGAGCAUCA
# B6: 119198781_119198901_4864_CDS_ENSMUSG00000018076_ENSMUST00000100816|mouse|control|control (ssRNA)
# RNA: GGGAGUUCUACAGUCCGACGAUCGCUGCCCCCCGCACUGGGGUUCUGCCCUCCAACACCACCACCGAAUCCUGAAGAAGAGGUAGUGUUCAUCUGAGUGAUGCCUGGAGCAGAGGCAGCUGAGGAGCCUGGCGGCCCAGAGGACAACAGAGGAUUGAGCAUCA
# B7: chr8:80578333:80578334:+_ENSG00000104435_ENST00000220876|hu_hu|motif|central (ssRNA)
# RNA: GGGAGUUCUACAGUCCGACGAUCAACUCCAAUUCUUUAUUAAUCACAGCUUGCUCACAAUGACAUACAGGAAAAUAGCACGGAUGAAGAGUAAAUAUGCAGGCAGCAACCUUCAGGAGUUGGGAGUUGGGGAGAAACGACUUCCAACAGAGGAUUGAGCAUCA
# B8: chr7:6639541:6639542:+_ENSG00000146576_ENST00000344417|hu_hu|motif|central (ssRNA)
# RNA: GGGAGUUCUACAGUCCGACGAUCGGGUGCCUUCACGCACCAGCGGAUCAAUCCAACGAGCGGGGUGAGCUCUAAGAAUCCGGUUGGCAGAUUGGCCGCAAUCGGAGUAUUUAAAAAAGUGAUGAGAAUCAACCUUGGGUCCUCCAACAGAGGAUUGAGCAUCA
# B9: chr2:117085994:117085995:+_ENSMUSG00000027349_ENSMUST00000028825|mus_hu|FALSE|FALSE (ssRNA)
# RNA: GGGAGUUCUACAGUCCGACGAUCUGACUUGGGUAUACCAAGUGUAUCAAACAUAGCUUGAACUUCCUGAUAAACUUCACUAUUUUUAUCUAAUUGAGAAUUUUUAUGUUUCUUGUUCUGUAAUAUCUGUGAAGCUUGAAGUUCCAACAGAGGAUUGAGCAUCA
# B10: chr19:8913615:8913616:-_ENSMUSG00000071658_ENSMUST00000096259|mus_hu|mus_mus_mus_hu_False|68_98 (ssRNA)
# RNA: GGGAGUUCUACAGUCCGACGAUCAGGGUACCAAAACACCCUGCCUCAAAUGGGUGCCCCACCCAGUCAGGACUUGGAGCUGAAAGUAUCUGAUGCAGAAGCAGUGACUAUACGAAAGGAGGCCCCUGGGGAGGGCCAGGCCAGCAACAGAGGAUUGAGCAUCA
# B11: chr1:46073211:46073212:+_ENSG00000132780_ENST00000537798|hu_mus|FALSE|FALSE (ssRNA)
# RNA: GGGAGUUCUACAGUCCGACGAUCAGAAGCGACCUCAUCUUCAUUCAGUCCUGGUAUUGCUGCUUCUUUUGCCUCUUCAGAGGAUUCAGUUAACUGCUUUGAAGUCGGUUCAACUGUUUCCUGGAGCUUCUCUUCAGGCUCACUCAACAGAGGAUUGAGCAUCA
# B12: chr12:109547708:109547709:+_ENSG00000076248_ENST00000242576|hu_hu|FALSE|FALSE (ssRNA)
# RNA: GGGAGUUCUACAGUCCGACGAUCAGACUUCUGCAGCAGCUCAUUGGUCUUUGAAAAGUGUCUACAUCCAAAGAACCCUCUAUACACUGACAAAGGGGAGGGAUGAGCCGUCUGUAGUACAUGGUGCCGCUUCCUAUCAAUGGCCAACAGAGGAUUGAGCAUCA
# B13: chr16:91657502:91657503:+_ENSMUSG00000022961_ENSMUST00000114036|mus_mus|FALSE|FALSE (ssRNA)
# RNA: GGGAGUUCUACAGUCCGACGAUCUCUAGGUGCUAACCUGUAUGGCCUAGGUGCUAUCCUAUAGGACCUGGGUGCUAUUCUAUAGGGCCUAGGUGAUACCCUAUAGGGAUCCGGAGUUAGUCUGUAGGGAUCAUGGCCUAAUCUCAACAGAGGAUUGAGCAUCA
# B14: chr4:175158536:175158537:-_ENSG00000164117_ENST00000503293|hu_mus|motif|central (ssRNA)
# RNA: GGGAGUUCUACAGUCCGACGAUCGAUUUUACACACAGGCUGGACUGGAGUGACCAGUGCUGAUGCAACCCUGCUGCCACGGAGUCUGUCCCUGGGUAGCCUCAGUCUGGAGUAAAAAGUUGAAGUUCGAACACUUGUGCUUUUCAACAGAGGAUUGAGCAUCA
# B15: chr6:40197388:40197389:+_ENSMUSG00000057716_ENSMUST00000061740|mus_mus|mus_mus_mus_hu_False|28_28 (ssRNA)
# RNA: GGGAGUUCUACAGUCCGACGAUCGAGACACUGGGGUGGAUUUAUUCCACCUCUGUUUGGGUGCUAGCCACUAAGACUGUUAUUUUGGGAUUCAUGGCCUUGAAUAUCAAGAGGAAAAGGAAGAGGAUGGAAAGAGUCAAGAGUCAACAGAGGAUUGAGCAUCA
# B16: chr1:220276048:220276049:+_ENSG00000067704_ENST00000302637|hu_mus|FALSE|FALSE (ssRNA)
# RNA: GGGAGUUCUACAGUCCGACGAUCGCAAAUUGCCUGGUUGGCGGGAAUUGUCCAAGGCUGGGUGGUCCAAACUAAAACGCUAACAGGGGAUGAGGCAUCUGUAAGAGACUCCAACUUCGGAGGAGGUCUCAGGAGGGGGAAUCUCAACAGAGGAUUGAGCAUCA
# B17: 74386376_74392459_548_CDS_ENSG00000114978_ENST00000396049|human|control|control (ssRNA)
# RNA: GGGAGUUCUACAGUCCGACGAUCGACACCAAUCUUAGAAGGAAAAAGAGUUUCAUCAUCAAGCUGAUCUUGAACCCAAGUCAUCAAAUAGUCAAUGUAUUUUGGUGCAGAACAUUUGAUUGGCUUUUUAAUAUUAGUACCAUCCAACAGAGGAUUGAGCAUCA
# B18: chr2:210595268:210595269:+_ENSG00000078018_ENST00000392194|hu_hu|motif|central (ssRNA)
# RNA: GGGAGUUCUACAGUCCGACGAUCUGUAAAGCCAGUGUCUUCCUGUUGCAAAUGGAAAUCAGGUCAAUUUCUGCAUGUACGGUUCAUUUUUUAAAUAGAAAAUUGUAACAAUUACUACAGUUUGGGGAUGAGAUUAUUUAUUUUCAACAGAGGAUUGAGCAUCA
# B19: chr4:47484081:47484082:-_ENSMUSG00000039740_ENSMUST00000044148|mus_mus|FALSE|FALSE (ssRNA)
# RNA: GGGAGUUCUACAGUCCGACGAUCCCAUUACGCUCUGAAGUCAAAUCAAUUGACUGUGACAAUGGUAAGACCUACACUACUAAAGCCAAUUAAGGCACUGGAUGAUCAAACCUUUAUAUAUAAAGGAACAAUAAUCCAGGAAAACAACAGAGGAUUGAGCAUCA
# B20: chr12:42180722:42180723:-_ENSMUSG00000036295_ENSMUST00000043884|mus_hu|mus_mus_mus_hu_True|48_88 (ssRNA)
# RNA: GGGAGUUCUACAGUCCGACGAUCCUGUAGGAGAAGAAUCUGUGUGUCGGCAGGCAAUCUGGCUGGGAAAGUUAAAAGACCUAAAUCAUUACAGUCCACUGUAGAUGCUUCCAUAUAAAUGGAUCUGGGUGUAAACCAAGGCCUCAACAGAGGAUUGAGCAUCA
# B21: chr7:151048522:151048523:+_ENSG00000013374_ENST00000566856|hu_mus|hu_hu_hu_mus_True|8_68 (ssRNA)
# RNA: GGGAGUUCUACAGUCCGACGAUCCUGUUUCUUAUUUAUUACGAUCUUGAUGUAAUUUUCUUGAAAUCCAAAGGUUUCAGCUAUUUGACACCUCAGGUCUCUACCAGUGACAUGCAAGCGGGUCUCCAACAAGUUUUUCUUAUCCAACAGAGGAUUGAGCAUCA
# B22: chr11:87793471:87793472:-_ENSMUSG00000020483_ENSMUST00000020775|mus_mus|mus_mus_mus_hu_False|38_78 (ssRNA)
# RNA: GGGAGUUCUACAGUCCGACGAUCUGGACUUGAAAAUAAAAGAAUAAGCUGGAUCCCCCCACCCCUUACAUUGUCAACCCUACACGAGAGUUUUGAAUGAUUCAUAAGAAAAUCAGCAGCUCAAACGGCAAUGACCACCCCACCCAACAGAGGAUUGAGCAUCA
# Molecular target: T1, UNK ZnF1-3
# Assay: nsRBNS (natural sequence RNA bind-n-seq); RBNS binding buffer (assumed for nsRBNS): 25 mM Tris pH 7.5, 150 mM KCl, 3 mM MgCl2, 0.01% Triton X-100, 500 ug/ml BSA, 20 U/ml SUPERase-In, 4 C; UNK is unkempt and MSI1 is Musashi-1; names of the RNAs are library labels; protein concentration not given here; high values mean tight binding
row,Binder,binding signal [enrichment R]
1,B1,1.24
2,B2,0.431
3,B3,1.1
4,B4,1.25
5,B5,1.33
6,B6,0.879
7,B7,1.9
8,B8,1.76
9,B9,0.227
10,B10,1.64
11,B11,0.545
12,B12,1.59
13,B13,0.421
14,B14,0.878
15,B15,1.48
16,B16,1.77
17,B17,1.06
18,B18,2.59
19,B19,0.628
20,B20,1.22
21,B21,0.63
22,B22,1.68
